# Source: PubChem BioAssay (Tox21)
# Where “and” joins values, the source holds several entries; their conditions need not be identical. Equal values may be shown once. Inconclusive means that the source gave no clear call. Such entries were picked first, then a sample of the others. For some of these results: Where the call is inconclusive, the potency comes from a doubtful curve fit. Some compounds were tested as several samples or in several runs, with calls that do not always agree. Calls of active or inactive are those of the source. Unless noted, calls come from the whole dose curve; as a rule, active = well fitted curve in the direction sought with a large enough effect in the repeat runs; inconclusive = weak or mixed curves; inactive = no such curve, though single readings can be large; an effect the other way counts as inactive or inconclusive.
# How the values were obtained:
# [1] = target: Estrogen receptor beta (Homo sapiens) (UniProt Q92731); assay: qHTS assay to identify small molecule agonists of the estrogen receptor beta (ER-beta) signaling pathway (AID 1259377; active = well fitted activation curve with a large enough effect in the signal ratio in the repeat runs, not every such curve was filed as active; inconclusive = weak or mixed curves, or effect the other way; the % refers to the signal ratio; for activation: % is set by controls: 0 for no effect and ±100 for the full control effect); details: ER-beta-UAS-bla HEK293T, beta-lactamase FRET ratio, 16 h; activation: at 92.4 µM (top of the series) unless noted
# Outline: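 Agonist mode cell assay in GripTite HEK293T cells expressing an ER-beta fusion that drives beta-lactamase from an Upstream Activator Sequence; 16 hr compound exposure at 37C, then 2 h LiveBLAzer B/G FRET substrate at room temperature, fluorescence read-out.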
# [2] = target: Estrogen receptor beta (Homo sapiens) (UniProt Q92731); assay: qHTS assay to identify small molecule antagonists of the estrogen receptor beta (ER-beta) signaling pathway (AID 1259378; active = well fitted inhibition curve with a large enough effect in the signal ratio in the repeat runs, not every such curve was filed as active; inconclusive = weak or mixed curves, or effect the other way; inactive = no such curve, though single readings can be large or run the other way; the % refers to the signal ratio); details: ER-beta-UAS-bla HEK293T, beta-lactamase FRET ratio, 16 h; activity, negative = inhibition: at 92.4 µM (top of the series) unless noted
# Outline: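 ER-beta-UAS-bla HEK293T cells in 2% charcoal-stripped FBS medium treated with compound plus 1nM final 17-beta-estradiol for 16 hr at 37C. Beta-lactamase reporter read by FRET substrate fluorescence after 2 hours at room temperature.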
# [3] = qHTS assay to identify small molecule antagonists of the estrogen receptor beta (ER-beta) signaling pathway - cell viability counter screen (AID 1259382); note: nearly all actives have a fitted effect of over 55% in size
# Outline: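 ER-beta-UAS-bla HEK293T cells in 2% charcoal-stripped FBS medium, treated with compound plus 1 nM 17-beta-estradiol for 16 h at 37C. Viability read by CellTiter-Glo luminescence after 30 min at room temperature in the same wells.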
# [4] = qHTS assay to identify small molecule agonists or antagonists of the thyroid stimulating hormone receptor (TSHR) signaling pathway - wild type cell line counter screen (AID 1259384; calls by dose curve; for cAMP activity change: % is set by controls: 0 for no effect and ±100 for the full control effect); details: HEK293 wild type, cAMP HTRF counter-screen; cAMP activity change: at 92.4 µM (top of the series), stronger effect = higher value unless noted
# Outline: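 Wild-type Hek293 cells, 800/well, 18 h at 37C, then compound with Ro20-1724 for 30 min RT. cAMP by HTRF (cAMP-d2/anti-cAMP cryptate), 1 h RT, fluorescence read. 15 concentrations, triplicates.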
# [5] = target: Thyrotropin receptor (Homo sapiens) (UniProt P16473); assay: qHTS assay to identify small molecule antagonists of the thyroid stimulating hormone receptor (TSHR) signaling pathway (AID 1259385; calls by dose curve; note: nearly all actives have a fitted effect of over 20% in size); details: TSHR-HEK293 cAMP HTRF, TSH-stimulated antagonist mode; activity change, negative = inhibition: at 92.4 µM (top of the series) unless noted
# Outline: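 TSHR-HEK293 cells (800/well) plated 18 h, then compounds with Ro20-1724 and TSH at 1.5 ng/mL final, 30 min at room temperature. cAMP quantified by HTRF (cAMP-d2/anti-cAMP-cryptate, 1 h); 15 concentrations in triplicate.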
# [6] = target: Progesterone receptor (Homo sapiens) (UniProt P06401); assay: qHTS assay to identify small molecule agonists of the progesterone receptor (PR) signaling pathway (AID 1346784; calls by dose curve; note: nearly all actives have a fitted effect of over 30% in size; for activation: % is set by controls: 0 for no effect and ±100 for the full control effect); details: PR-UAS-bla HEK293T, beta-lactamase FRET ratio, 16 h; activation: at 92.4 µM (top of the series) unless noted
# Outline: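 Cells (PR-UAS-bla HEK 293T, GripTite) were plated in assay medium containing 2% charcoal-stripped FBS and incubated 6 hr. Test compounds in DMSO were added for 16 hr at 37C. FRET substrate was then loaded for 2 hr at room temperature before fluorescence reading.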
# [7] = target: Progesterone receptor (Homo sapiens) (UniProt P06401); assay: qHTS assay to identify small molecule antagonists of the progesterone receptor (PR) signaling pathway (AID 1346795; active = well fitted inhibition curve with a large enough effect in the signal ratio in the repeat runs, not every such curve was filed as active; inconclusive = weak or mixed curves; the % refers to the signal ratio); details: PR-UAS-bla HEK293T, beta-lactamase FRET ratio, 16 h; activity change, negative = inhibition: at 92.4 µM (top of the series) unless noted
# Outline: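 Antagonist mode: compounds tested against 1 nM (final) promegestone stimulation in HEK293T cells expressing PR-UAS-bla reporter, 16 hr at 37C, 5% CO2; beta-lactamase activity detected via B/G FRET substrate after 2 hr at room temperature.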
# [8] = qHTS assay to identify small molecule antagonists of the progesterone receptor (PR) signaling pathway - cell viability counter screen (AID 1346798); note: nearly all actives have a fitted effect of over 50% in size
# Outline: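 Counter screen for cytotoxicity: viability of PR-UAS-bla HEK293T cells was measured with CellTiter-Glo luminescence following 16 hr compound exposure in the presence of R5020.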
# [9] = qHTS assay to identify small molecule agonists of the TGF-beta/Smad signaling pathway (AID 1346859; active = well fitted activation curve with a large enough effect in the signal ratio in the repeat runs, not every such curve was filed as active; inconclusive = weak or mixed curves; the % refers to the signal ratio; for activation: % is set by controls: 0 for no effect and ±100 for the full control effect); details: SBE-bla HEK293T, TGF-beta/Smad beta-lactamase reporter, 5 h; activation: at 76.8 µM (top of the series) unless noted
# Outline: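 Reporter line: HEK 293T with stably integrated SBE-controlled beta-lactamase. Compound exposure lasts 5 hr at 37 C and 5% CO2; substrate loading follows for 2 hr at room temperature, with emission read at 460 and 530 nm.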
# [10] = target: Thyrotropin-releasing hormone receptor (Homo sapiens) (UniProt P34981); assay: qHTS assay to identify small molecule antagonists of the thyrotropin-releasing hormone receptor (TRHR) signaling pathway (AID 1346877; active = well fitted inhibition curve with a large enough effect in the repeat runs, not every such curve was filed as active; inconclusive = weak or mixed curves)
# Outline: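 TRHR-expressing HEK293 cells loaded with calcium dye for 2 h at 37 C; compounds pre-incubated 5 min at room temperature before TRH challenge at 1 nM final. Intracellular calcium fluorescence read kinetically for 3 min; 15 concentrations in triplicate.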
# [11] = qHTS assay to identify small molecule antagonists of the TGF-beta/Smad signaling pathway (AID 1346924; active = well fitted inhibition curve with a large enough effect in the signal ratio in the repeat runs, not every such curve was filed as active; inconclusive = weak or mixed curves; the % refers to the signal ratio); details: SBE-bla HEK293T, TGF-beta/Smad reporter, beta-lactamase ratio; activity, negative = inhibition: at 76.8 µM (top of the series) unless noted
# Outline: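 SBE-bla HEK 293T cells were plated overnight, then received compound in DMSO plus TGF-beta1 (added as a 0.25 ng/mL solution) and were incubated 5 h at 37 C. Beta-lactamase reporter activity was read after 2 h at room temperature with LiveBLAzer B/G FRET substrate (ex 405, em 460/530 nm).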
# [12] = qHTS assay to identify small molecule agonists of the estrogen receptor beta (ER-beta) signaling pathway - cell viability counter screen (AID 1259380); note: nearly all actives have a fitted effect of over 30% in size
# Outline: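 ER-beta-UAS-bla HEK293T cells in medium with 2% charcoal-stripped FBS, pre-incubated 6 hr, then treated 16 hr at 37C. Cytotoxicity read in the same wells by CellTiter-Glo luminescence after 30 min at room temperature.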
# [13] = qHTS assay to identify small molecule agonists of the estrogen receptor alpha (ER-alpha) signaling pathway in the presence of an antagonist - cell viability counter screen (AID 1259386);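 note: cells exposed to compounds for 22 h at 37 °C before the viability read; nearly all actives have a fitted effect of over 30% in size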
# Outline: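 Cell viability in VM7Luc4E2 cells (endogenous full-length ER-alpha) measured by CellTiter-Fluor fluorescence in the same wells as the luciferase screen. Cells pre-cultured 5 days in charcoal-stripped serum, then treated 22 h with compounds at 15 concentrations plus 10.0nM ICI-182,780.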
# [14] = target: Androgen receptor (Homo sapiens) (UniProt P10275); assay: qHTS assay to identify small molecule agonists of the androgen receptor (AR) signaling pathway in the presence of an antagonist (AID 1259381; calls by dose curve; note: nearly all actives have a fitted effect of over 15% in size)
# Outline: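 MDA-kb2 cells carrying MMTV-luciferase (AR/GR responsive), 3,000 cells/well, co-treated with 3.0 uM nilutamide final. Compounds at 15 concentrations, 16 hr at 37C without CO2. Luciferase luminescence read after 30 min with ONE-Glo.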
# [15] = qHTS assay to identify small molecule agonists of the progesterone receptor (PR) signaling pathway - cell viability counter screen (AID 1346799; calls by dose curve; note: nearly all actives have a fitted effect of over 45% in size)
# Outline: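 Cells (PR-UAS-bla HEK293T) are plated at 3,000/well in 2% charcoal-stripped FBS medium, rested 6 hr, dosed and incubated 16 hr at 37C. CellTiter-Glo is then added and luminescence measured after 30 min at room temperature.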
# [16] = qHTS assay to identify small molecule agonists of the androgen receptor (AR) signaling pathway in the presence of an antagonist - cell viability counter screen (AID 1259379); note: nearly all actives have a fitted effect of over 25% in size
# Outline: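 MDA-kb2 cells (MMTV-luciferase, AR/GR), 3,000/well, 5 h attachment, then 3.0 µM nilutamide (final) and compounds at 15 concentrations. Viability by CellTiter-Fluor fluorescence after 16 h at 37 °C, 0% CO2, in the reporter wells.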
# Potency is the fitted concentration of half-maximal effect; tags give direction and shape of the fitted curve or compound fluorescence and quenching.
# Chain of UniProt P06401 (P06401 whole entry, looked up): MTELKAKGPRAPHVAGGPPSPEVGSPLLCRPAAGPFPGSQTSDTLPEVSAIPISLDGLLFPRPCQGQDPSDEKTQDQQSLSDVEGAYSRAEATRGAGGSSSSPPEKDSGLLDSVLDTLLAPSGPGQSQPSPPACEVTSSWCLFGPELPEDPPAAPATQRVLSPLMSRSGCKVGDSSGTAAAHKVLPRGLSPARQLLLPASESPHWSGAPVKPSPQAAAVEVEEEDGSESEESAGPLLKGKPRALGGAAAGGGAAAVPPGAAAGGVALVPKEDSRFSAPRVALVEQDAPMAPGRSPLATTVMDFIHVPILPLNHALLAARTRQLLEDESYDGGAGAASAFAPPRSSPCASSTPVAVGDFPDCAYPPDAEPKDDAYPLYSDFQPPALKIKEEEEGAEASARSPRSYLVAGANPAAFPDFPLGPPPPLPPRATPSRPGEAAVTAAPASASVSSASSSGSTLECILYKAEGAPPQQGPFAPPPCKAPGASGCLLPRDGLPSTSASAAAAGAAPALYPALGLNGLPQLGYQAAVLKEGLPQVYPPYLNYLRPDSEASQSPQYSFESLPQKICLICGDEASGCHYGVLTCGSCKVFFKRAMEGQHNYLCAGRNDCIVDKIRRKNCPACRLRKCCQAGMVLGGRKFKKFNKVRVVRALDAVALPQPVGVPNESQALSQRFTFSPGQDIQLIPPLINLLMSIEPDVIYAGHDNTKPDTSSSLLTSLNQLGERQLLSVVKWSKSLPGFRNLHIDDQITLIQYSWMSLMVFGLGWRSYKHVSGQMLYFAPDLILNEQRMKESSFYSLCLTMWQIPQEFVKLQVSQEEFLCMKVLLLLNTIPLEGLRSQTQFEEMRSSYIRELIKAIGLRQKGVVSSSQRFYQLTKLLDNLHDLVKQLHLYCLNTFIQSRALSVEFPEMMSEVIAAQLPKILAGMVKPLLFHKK
# Chain of UniProt P16473 (P16473 whole entry, looked up): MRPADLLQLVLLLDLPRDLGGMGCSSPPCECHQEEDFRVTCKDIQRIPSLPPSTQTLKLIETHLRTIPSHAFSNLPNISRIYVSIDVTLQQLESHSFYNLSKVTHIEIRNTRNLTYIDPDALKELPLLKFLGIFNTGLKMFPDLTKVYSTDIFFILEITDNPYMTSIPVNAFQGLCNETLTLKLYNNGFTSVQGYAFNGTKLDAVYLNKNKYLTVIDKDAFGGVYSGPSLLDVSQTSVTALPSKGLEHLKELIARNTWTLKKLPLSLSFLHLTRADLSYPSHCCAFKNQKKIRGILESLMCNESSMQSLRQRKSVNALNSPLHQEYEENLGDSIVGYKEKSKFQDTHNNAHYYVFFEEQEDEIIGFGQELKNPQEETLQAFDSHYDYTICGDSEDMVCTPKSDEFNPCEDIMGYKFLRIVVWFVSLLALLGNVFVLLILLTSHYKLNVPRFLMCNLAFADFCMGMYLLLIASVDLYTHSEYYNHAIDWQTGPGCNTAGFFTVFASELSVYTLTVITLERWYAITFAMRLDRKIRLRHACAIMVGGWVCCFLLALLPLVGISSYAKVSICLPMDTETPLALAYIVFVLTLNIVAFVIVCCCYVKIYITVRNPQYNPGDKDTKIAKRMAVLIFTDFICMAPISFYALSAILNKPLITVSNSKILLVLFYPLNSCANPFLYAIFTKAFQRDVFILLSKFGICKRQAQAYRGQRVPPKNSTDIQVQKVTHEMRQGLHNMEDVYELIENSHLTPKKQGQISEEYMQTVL
# Chain of UniProt Q92731 (Q92731 whole entry, looked up, the tested form may be a part): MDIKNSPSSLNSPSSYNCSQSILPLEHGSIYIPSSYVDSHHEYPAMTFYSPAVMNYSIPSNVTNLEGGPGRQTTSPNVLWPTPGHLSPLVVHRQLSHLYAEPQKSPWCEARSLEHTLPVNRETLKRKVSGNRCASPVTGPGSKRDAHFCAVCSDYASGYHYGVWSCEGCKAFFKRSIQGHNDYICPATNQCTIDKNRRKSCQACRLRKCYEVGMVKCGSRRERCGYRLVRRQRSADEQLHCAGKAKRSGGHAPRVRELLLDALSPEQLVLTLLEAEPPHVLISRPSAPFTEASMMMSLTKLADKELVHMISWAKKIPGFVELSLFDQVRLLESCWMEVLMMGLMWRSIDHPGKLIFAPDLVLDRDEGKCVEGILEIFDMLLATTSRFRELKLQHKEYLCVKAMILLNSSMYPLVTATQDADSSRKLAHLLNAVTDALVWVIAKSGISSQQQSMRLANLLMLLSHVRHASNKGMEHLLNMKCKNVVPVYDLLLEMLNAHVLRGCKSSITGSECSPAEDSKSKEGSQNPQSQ
# Chain of UniProt P34981 (P34981 whole entry, looked up): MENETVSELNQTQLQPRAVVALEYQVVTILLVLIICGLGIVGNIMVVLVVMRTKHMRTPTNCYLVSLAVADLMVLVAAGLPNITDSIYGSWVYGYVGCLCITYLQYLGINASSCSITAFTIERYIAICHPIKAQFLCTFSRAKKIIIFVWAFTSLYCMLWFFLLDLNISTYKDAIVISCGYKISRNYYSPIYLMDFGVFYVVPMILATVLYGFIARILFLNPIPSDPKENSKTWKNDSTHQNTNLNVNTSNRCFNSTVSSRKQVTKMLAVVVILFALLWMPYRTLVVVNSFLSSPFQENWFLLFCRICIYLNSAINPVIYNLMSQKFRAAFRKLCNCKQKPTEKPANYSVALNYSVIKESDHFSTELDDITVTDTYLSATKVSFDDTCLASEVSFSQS
# Chain of UniProt P10275 (P10275 whole entry, looked up): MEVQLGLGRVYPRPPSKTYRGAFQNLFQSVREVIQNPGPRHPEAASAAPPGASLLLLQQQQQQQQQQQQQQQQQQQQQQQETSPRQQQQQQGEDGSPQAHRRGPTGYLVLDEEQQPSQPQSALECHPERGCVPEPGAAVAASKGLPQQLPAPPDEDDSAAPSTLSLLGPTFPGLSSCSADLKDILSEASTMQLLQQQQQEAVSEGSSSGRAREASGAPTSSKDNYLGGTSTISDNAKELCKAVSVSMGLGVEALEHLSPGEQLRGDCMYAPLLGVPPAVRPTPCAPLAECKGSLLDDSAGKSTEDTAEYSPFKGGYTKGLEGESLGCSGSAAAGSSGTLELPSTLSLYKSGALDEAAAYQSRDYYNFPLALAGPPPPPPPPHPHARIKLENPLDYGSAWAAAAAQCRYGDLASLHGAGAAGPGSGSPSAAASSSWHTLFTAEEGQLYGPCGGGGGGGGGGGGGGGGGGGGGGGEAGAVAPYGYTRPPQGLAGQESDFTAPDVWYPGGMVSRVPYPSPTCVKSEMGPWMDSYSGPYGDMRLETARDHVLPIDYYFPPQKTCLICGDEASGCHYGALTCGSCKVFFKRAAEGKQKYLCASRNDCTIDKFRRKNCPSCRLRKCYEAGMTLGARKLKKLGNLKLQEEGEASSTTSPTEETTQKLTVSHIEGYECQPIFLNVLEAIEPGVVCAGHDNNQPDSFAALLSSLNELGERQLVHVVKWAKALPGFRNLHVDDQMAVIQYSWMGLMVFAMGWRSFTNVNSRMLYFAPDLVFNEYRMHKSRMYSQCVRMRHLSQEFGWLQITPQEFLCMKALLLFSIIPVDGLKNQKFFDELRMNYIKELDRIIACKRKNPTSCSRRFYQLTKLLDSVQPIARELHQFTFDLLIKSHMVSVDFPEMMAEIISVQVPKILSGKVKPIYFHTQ
smiles,measurement,setting,value
O=C1OC2(c3cc(Br)c(O)c(Br)c3Oc3c2cc(Br)c(O)c3Br)c2c(Cl)c(Cl)c(Cl)c(Cl)c21,Potency,[1],inconclusive: 68.7 µM
same,Potency,[2],inconclusive: 68.7 µM [single point] and inconclusive: 41.6 µM
same,Potency,[3],inconclusive: 68.7 µM [cytotoxic]
same,Potency,[4],inconclusive: 68.7 µM
same,Potency,[5],inconclusive: 61.2 µM
same,activation,[6],inconclusive: -13%
same,Potency,[7],inconclusive: 68.7 µM [single point]
same,Potency,[8],"inconclusive: 68.7 µM [cytotoxic, single point]"
same,Potency,[9],inconclusive: 55 µM and inactive
same,Potency,[10],"inconclusive: 38 µM [inhibitor, single point]"
same,Potency,[11],"inconclusive: 43.7 µM [rising, partial curve]"
same,"activity, negative = inhibition",[11],inconclusive: -51.3% [at 35.3 µM]
Nc1ccc(N=Nc2ccccc2)c(N)c1,activation,[1],inconclusive: -2.79%
same,Potency,[2],"inconclusive: 18.9 µM [rising, partial curve, poor fit]"
same,Potency,[12],active: 26.7 µM
same,Potency,[3],"inconclusive: 33.6 µM [cytotoxic, partial curve]"
same,cAMP activity change,[4],inconclusive: -14%
same,"activity change, negative = inhibition",[5],inconclusive: -5.25%
same,Potency,[7],active: 47.5 µM
same,Potency,[8],inactive
same,"activity, negative = inhibition",[11],inconclusive: -11.8%
CC(C)(C)C1CCC(CC2=C(O)c3ccccc3C(=O)C2=O)CC1 (stereo not drawn),Potency,[1],"inconclusive: 1.19 µM [rising, single point]"
same,"activity, negative = inhibition",[2],inconclusive: -31.1% [at 42.5 µM]
same,Potency,[12],"inconclusive: 1.06 µM [cytotoxic, full curve]"
same,Potency,[3],"inconclusive: 1.19 µM [cytotoxic, full curve, poor fit]"
same,Potency,[13],"inconclusive: 11.9 µM [cytotoxic, partial curve]"
same,"activity, negative = inhibition",[11],inconclusive: -22.2% [at 35.3 µM]
Nc1ccc(O)cc1,Potency,[1],inconclusive: 25.3 µM
same,Potency,[2],inconclusive: 28.4 µM
same,Potency,[14],active: 5.04 µM
same,Potency,[5],"inconclusive: 40.1 µM [falling, partial curve]"
same,Potency,[6],"inconclusive: 2.53 µM [falling, single point]"
same,Potency,[7],"inconclusive: 63.5 µM [falling, single point]"
same,activation,[9],inconclusive: 19.6%
same,"activity, negative = inhibition",[11],inconclusive: 9.27%
COc1cc(C=C2CCC/C(=C\c3ccc(O)c(OC)c3)C2=O)ccc1O,Potency,[1],"inconclusive: 5.96 µM [rising, full curve]"
same,Potency,[2],"inconclusive: 21.1 µM [rising, partial curve]"
same,Potency,[3],inconclusive: 33.5 µM [cytotoxic]
same,Potency,[5],"inconclusive: 26.6 µM [falling, partial curve]"
same,Potency,[13],"inconclusive: 29.8 µM [cytotoxic, partial curve]"
same,activation,[6],inconclusive: -16% [at 42.5 µM]
same,Potency,[7],active: 6.68 µM
same,Potency,[8],"inconclusive: 37.6 µM [cytotoxic, single point]"
same,Potency,[15],"inconclusive: 33.5 µM [cytotoxic, single point]"
same,"activity, negative = inhibition",[11],inconclusive: 9.37% [at 35.3 µM]
O=C(Nc1ccc(Cl)c(Cl)c1)c1cc(Cl)cc(Cl)c1O,Potency,[1],"inconclusive: 13.7 µM [rising, full curve]"
same,"activity, negative = inhibition",[2],inconclusive: -1.87%
same,Potency,[16],active: 6.86 µM
same,Potency,[3],active: 19.3 µM
same,Potency,[13],active: 7.7 µM
same,Potency,[7],active: 4.86 µM
same,Potency,[8],"inconclusive: 17.2 µM [cytotoxic, full curve, poor fit]"
same,Potency,[9],"inconclusive: 3.09 µM [fluorescent, full curve]"
same,Potency,[10],"inconclusive: 30.1 µM [inhibitor, partial curve, poor fit]"
same,Potency,[11],inconclusive: 6.92 µM
CCCOC(=O)c1ccc(O)cc1,Potency,[1],"inconclusive: 30.6 µM [fluorescent, full curve]"
same,Potency,[2],"inconclusive: 34.4 µM [falling, full curve]"
same,Potency,[12],"inconclusive: 21.7 µM [rising, partial curve]"
same,Potency,[3],"inconclusive: 24.3 µM [cytotoxic, partial curve, poor fit]"
same,Potency,[13],"inconclusive: 68.6 µM [cytotoxic, single point]"
same,Potency,[7],inconclusive: 38.6 µM
same,Potency,[8],"inconclusive: 0.386 µM [rising, partial curve, poor fit]"
same,Potency,[15],inconclusive: 68.6 µM
Oc1cccc(-c2c3nc(c(-c4cccc(O)c4)c4ccc([nH]4)c(-c4cccc(O)c4)c4nc(c(-c5cccc(O)c5)c5ccc2[nH]5)CC4)C=C3)c1,activation,[1],inconclusive: -11.2% [at 42.5 µM]
same,Potency,[2],active: 26.6 µM
same,Potency,[16],active: 8.41 µM
same,Potency,[5],inconclusive: 29.8 µM
same,Potency,[13],active: 10.6 µM
same,Potency,[6],"inconclusive: 13.3 µM [cytotoxic, partial curve]"
same,Potency,[7],"inconclusive: 5.96 µM [falling, partial curve]"
same,Potency,[8],"inconclusive: 33.5 µM [cytotoxic, single point]"
same,Potency,[15],"inconclusive: 33.5 µM [cytotoxic, single point]"
same,"activity, negative = inhibition",[11],inconclusive: -9.26% [at 35.3 µM]
